From publication PMC4242493
The other results are listed elsewhere or left out. The list includes weakly bound sequences.

target: MaxL homodimer (UniProt P61244); test: universal protein-binding microarray (PBM); conditions: PBS-based mixture, 10 nM His-tagged protein dimer, 2% milk, 200 ng/uL BSA, 50 ng/uL salmon testes DNA, 0.02% TX-100; detection with Alexa 488 anti-His …; high values mean tight binding; most listed sequences are background and not binding sites; double strand, one strand shown
Sequence of UniProt P61244 (P61244 whole entry): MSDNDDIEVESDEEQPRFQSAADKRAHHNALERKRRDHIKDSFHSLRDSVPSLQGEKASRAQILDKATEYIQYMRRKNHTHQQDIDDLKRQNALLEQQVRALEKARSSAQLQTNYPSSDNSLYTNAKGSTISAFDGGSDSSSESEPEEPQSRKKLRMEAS

Sequence | binding signal (normalized occupancy)
ACCTCGCA | 0.0766
CAATGAGG | 0.0801
CGGGTATC | 0.0789
CGCTGTAG | 0.077
TCCACTAA | 0.0724
CAGGGTCA | 0.0745
CCTACCTA | 0.078
TACAGAGA | 0.0754
GTTAAGAA | 0.0721
GATGATAA | 0.078
ATCTCTCG | 0.0796
AGGGAATA | 0.078
CACTCATC | 0.0765
CGTTTTAG | 0.0783
ATGTGGGG | 0.0878
CTCAGTGA | 0.0714
GTGGCTCA | 0.0812
CTTGAATA | 0.0773
CAGTGAAA | 0.068
AATGGCAA | 0.0742
CGTCCAAA | 0.0694
CTAAAGCC | 0.0727

Sequence | binding signal (normalized occupancy)
GACGAGGC | 0.0707
CACCAACC | 0.0772
TAACGACA | 0.0739
CACCTATA | 0.0894
CGATCCTC | 0.0759
CGTGTATC | 0.092
GATGTTAC | 0.0818
AACACAGC | 0.0787
AGAGGTCA | 0.0771
ACATAGCG | 0.0747
ATCGAACG | 0.0763
GATATAGA | 0.0907
GGTTCCAC | 0.069
AAGAGTCC | 0.0718
ATTACAAG | 0.0836
AGGCTTCG | 0.0713
TCATGCAA | 0.0829
CTTCTGTC | 0.0709
AGTATGAT | 0.0858
AACTCGTG | 0.095
CCCCATAA | 0.0834
AGAAGACT | 0.0746

Sequence | binding signal (normalized occupancy)
TATAGGAA | 0.0783
AGTGTCAT | 0.0822
TAGCGCGA | 0.0679
CCAGTTTC | 0.0689
GGAGTGAA | 0.0707
TCCTGGAA | 0.0696
GCGCATCA | 0.0745
AGCTTTGG | 0.0687
CGCGTCTA | 0.0736
CCCAACCG | 0.0759
CCCACTGC | 0.0759
CCCCGCCC | 0.0799
ATATTCAC | 0.0816
CAGAGCCC | 0.069
CCGTGCGC | 0.0813
ATACGTGC | 0.0872
CCGAATCC | 0.0756
ACCCGCGA | 0.0721
CCGGCTTC | 0.0669
CACCCGCC | 0.0799
AAAATGCT | 0.0764
AGTGAACA | 0.0793

Sequence | binding signal (normalized occupancy)
AGCATAAG | 0.0813
CCGTCTGA | 0.0685
CGCCATGC | 0.0988
GGCGTTCA | 0.0718
AGCACGGG | 0.088
AATCGTAA | 0.0771
TGAGATAA | 0.0797
CGACTTAA | 0.0729
CACCGACA | 0.0792
ACCTCTCA | 0.0737
ATCCGATC | 0.0835
CATCTTAG | 0.0769
ATTGGTTA | 0.0743
CCCCACAC | 0.0866
CCCACCTC | 0.0804
AGATACAT | 0.0926
CCAACTAC | 0.0736
GGGTCAGA | 0.0771
CGTCAGGA | 0.0702
CAGTTCCG | 0.0661
GTCTATAA | 0.0829
CAGGCAAA | 0.0692

Sequence | binding signal (normalized occupancy)
CTGCCCGA | 0.0697
ACTAGTGC | 0.0753
GCATGCTA | 0.112
CACTGGTC | 0.0687
ACCTATGA | 0.0757
ATCTGGTG | 0.0859
AGAACTTG | 0.0725
AGCATGTA | 0.106
GACACGAA | 0.0712
GGCATCAC | 0.0813
AAAGACAA | 0.0741
AACTTGTG | 0.077
AAATGTCG | 0.0766
GACCAGAC | 0.0698
TTGGAAAA | 0.0772
ACTCCCCC | 0.0838
AGCTGTAA | 0.077
CCTGGATA | 0.0751
GTGTCTGA | 0.0772
GGGTACTA | 0.079
CGAGGTGC | 0.0781
